# The whole screen tested about 310,000 compounds, of which about 14,000 (4.5%) showed an effect of 50% or more. The effect is printed as a negative number. This is one part of the list.
# Biological target: human ether-à-go-go-related gene (hERG) potassium channel (human, UniProt Q12809)
# Assay: primary screen, population patch clamp on CHO cells stably expressing hERG
# 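Further: peak tail current of the secondary pulse compared with the same well before compound.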
# Chain of human ether-à-go-go-related gene (hERG) potassium channel (Q12809 whole entry, looked up): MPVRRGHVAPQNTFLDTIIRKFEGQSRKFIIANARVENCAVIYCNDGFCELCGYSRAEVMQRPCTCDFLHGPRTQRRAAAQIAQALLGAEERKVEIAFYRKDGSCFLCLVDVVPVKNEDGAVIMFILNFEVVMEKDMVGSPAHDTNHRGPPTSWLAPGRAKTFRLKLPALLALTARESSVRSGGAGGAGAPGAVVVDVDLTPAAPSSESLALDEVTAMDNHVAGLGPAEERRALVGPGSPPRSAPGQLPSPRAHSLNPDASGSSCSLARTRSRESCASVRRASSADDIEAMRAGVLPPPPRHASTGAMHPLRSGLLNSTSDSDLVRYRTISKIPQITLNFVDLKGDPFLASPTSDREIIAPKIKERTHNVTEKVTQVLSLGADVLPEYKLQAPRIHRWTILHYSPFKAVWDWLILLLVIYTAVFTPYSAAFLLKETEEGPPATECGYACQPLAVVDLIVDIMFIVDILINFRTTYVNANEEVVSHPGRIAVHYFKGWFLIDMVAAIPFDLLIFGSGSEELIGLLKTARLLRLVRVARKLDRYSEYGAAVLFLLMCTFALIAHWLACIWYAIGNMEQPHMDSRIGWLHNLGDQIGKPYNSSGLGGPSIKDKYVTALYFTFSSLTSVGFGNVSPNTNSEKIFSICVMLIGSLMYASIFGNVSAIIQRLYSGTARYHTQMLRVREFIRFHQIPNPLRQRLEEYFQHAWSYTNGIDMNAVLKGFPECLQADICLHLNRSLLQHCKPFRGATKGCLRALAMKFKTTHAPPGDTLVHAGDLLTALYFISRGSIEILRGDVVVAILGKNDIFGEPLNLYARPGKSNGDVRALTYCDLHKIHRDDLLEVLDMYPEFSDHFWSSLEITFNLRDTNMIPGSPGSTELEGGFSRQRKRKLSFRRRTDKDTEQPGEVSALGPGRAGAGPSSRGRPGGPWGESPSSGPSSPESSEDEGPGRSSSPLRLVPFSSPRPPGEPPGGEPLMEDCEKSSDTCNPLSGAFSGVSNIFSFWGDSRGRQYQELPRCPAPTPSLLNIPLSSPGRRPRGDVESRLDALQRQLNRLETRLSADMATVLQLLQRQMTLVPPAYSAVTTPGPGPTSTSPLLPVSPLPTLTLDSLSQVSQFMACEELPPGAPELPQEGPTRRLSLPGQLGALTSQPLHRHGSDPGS
row,Structure (SMILES),"hERG current change (%, negative = inhibition) at 10uM"
1,COC(=O)CNC(=S)NC(=O)c1ccc(C(C)(C)C)cc1,-22.3%
2,Cc1ccc(Cl)cc1NC(=O)CN1CCN(S(=O)(=O)N2CCOCC2)CC1,-64.3%
3,COc1ccc(CCN2C(=NC(=O)C(C)C)SC3CS(=O)(=O)CC32)cc1OC (centres unmarked),1.39%
4,CCOc1cc2[nH]c(=O)n(CCc3ccc(OC)c(OC)c3)c(=O)c2cc1OCC,18.5%
5,CCOC(=O)c1[nH]c2ccccc2c1NC(=O)c1cc(OC)c(OC)c(OC)c1,-8.76%
6,COc1ccc(NC(=O)c2cc(-c3cc(C)ccc3O)n[nH]2)cc1Cl,-8.07%
7,Cc1cc(C)c(C#N)c(SCc2cc3c(cc2Cl)OCO3)n1,4.96%
8,Cc1cnn2c(C3CC3)ccnc12,4.03%
9,O=c1cc(N=Nc2ccc(Cl)cc2)[nH]c(=O)[nH]1,9.49%
10,O=C/C(=C\Nc1ccc(S(=O)(=O)CCO)cc1)c1nc2cc(Cl)ccc2o1,-38.2%
11,COc1cccc(CNC(=O)Cn2nc(-c3ccc(Cl)cc3)ccc2=O)c1,-44.8%
12,Cc1cc(C(=O)COC(=O)CC2Sc3ccccc3NC2=O)c(C)n1-c1ccccc1 (centres unmarked),28%
13,O=C(C1CCC1)N1CCN(c2ccccc2)CC1,13.6%
14,CC(=O)c1ccc(N(C(=O)CS(=O)CC(=O)Nc2ccc(F)cc2)C(C(=O)NC2CCCCC2)c2cccs2)cc1 (centres unmarked),13.1%
15,CSc1ccc(/C=C/C(=O)OCC(=O)NCC2CCCO2)cc1 (centres unmarked),6.36%
16,Cc1ccc(-n2nc3ccc(N)cc3n2)cc1Cl,34.5%
17,Cc1ccc(NC2=C(NCCO)C(=O)c3ccccc3C2=O)cc1,-9.55%
18,Nc1cc(C(F)(F)F)cc([N+](=O)[O-])c1N,5.85%
19,COC(=O)c1ccc(Cn2nnc3c(=O)[nH]c(C4CCN(S(=O)(=O)c5ccc(F)cc5)CC4)nc32)cc1,-70.3%
20,Cn1c(C=O)c(C#Cc2ccccc2)c2ccccc21,3.31%
21,O=C(CN1C(=O)/C(=C/c2cccc(Cl)c2)SC1=S)NC1C=CS(=O)(=O)C1 (centres unmarked),7.97%
22,CCCOC(=O)c1ccc(-[n+]2c(-c3ccccc3)cc(-c3ccccc3)cc2-c2ccccc2)cc1.[O-][Cl+3]([O-])([O-])[O-],-77.2%
23,CCCCCCNC(=O)CCNS(=O)(=O)c1ccc(C)cc1,-12.8%

row,Structure (SMILES),"hERG current change (%, negative = inhibition) at 10uM"
1,CC1CC(C)CN(CCCNC(=O)C2CCN(c3ncnc4c3sc3cccc(F)c34)CC2)C1 (centres unmarked),-65.8%
2,NS(=O)(=O)c1ccc(NC(=O)COC(=O)CCc2c[nH]c3ccccc23)cc1,22%
3,C=CCn1c(SCC(=O)Nc2cccnc2Cl)nnc1-c1ccccc1F,-15.5%
4,Cc1nc2ccccc2n1-c1ccccc1,-10.2%
5,CC1(CCC#N)N=C(SCCC#N)N(c2ccccc2)C1=O (centres unmarked),2.7%
6,CC(=O)OC(C(=O)NC1CCCCC1)c1cccc(F)c1 (centres unmarked),16.5%
7,O=C(CSc1cn(CCNC(=O)c2cccs2)c2ccccc12)NCC1CCCO1 (centres unmarked),-17.9%
8,O=C(NC1CCN(S(=O)(=O)c2ccccc2)CC1)c1ccccc1,5.3%
9,CC(NS(=O)(=O)c1ccc(Cl)cc1)C(=O)N1CCOCC1 (centres unmarked),6.2%
10,COc1ccc(OC)c(-c2nc(CN3CCN(C(=O)c4ccco4)CC3)c(C)o2)c1,-21.9%
11,CCCn1c(C(C)Nc2nc(-c3ccc(OC)cc3)cs2)nc2ccccc21 (centres unmarked),6.2%
12,CCc1ccc(OCC(=O)Nc2ncn[nH]2)cc1,13.1%
13,C/C(=N\O)C(=O)NCc1ccccn1,-3.01%
14,CN1CCN(c2ccccc2NC(=O)c2cccc(OCc3ccccc3)c2)CC1,-78.9%
15,COCC(=O)Nc1ccc(S(=O)(=O)Nc2cc(C)nc(C)n2)cc1,12.2%
16,CCOC(=O)NNc1cc(C(F)(F)F)ccn1,6.87%
17,O=C(NCc1ccccc1)C(=O)NCC1CCCN1S(=O)(=O)c1cccs1 (centres unmarked),-11.6%
18,O=C(CN1C(=O)S/C(=C\c2cccs2)C1=O)Nc1ccc(O)cc1C(=O)O,8.88%
19,O=C(NCCCN1CCOCC1)c1cccc(S(=O)(=O)Nc2ccccc2Cl)c1,7.43%
20,COc1ccc(CCNC(=O)c2cc(-c3ccccc3)on2)cc1OC,14.8%
21,C/C(=N\NC(=O)Cc1cccn1C)c1ccc([N+](=O)[O-])cc1,-5.82%
22,COc1cccc2cc(C(=O)N3CCc4ccccc43)c(=O)oc12,12.4%
23,C=CCn1c(N2CCCC2)nc2c1c(=O)[nH]c(=O)n2C,0.472%

row,Structure (SMILES),"hERG current change (%, negative = inhibition) at 10uM"
1,CC1=C(C(=O)Nc2ccc(F)cc2)C(c2ccc(C)o2)C2=C(CC(C)(C)CC2=O)N1 (centres unmarked),-7.85%
2,O=C(COc1ccc(Br)cc1)N1CCCCCC1,-22.9%
3,COC(=O)c1ccc(COc2ccccc2[N+](=O)[O-])o1,10.5%
4,O=C(Nc1ccccc1)c1cnc(-c2ccccc2)nc1-c1ccccc1,-9.72%
5,NS(=O)(=O)c1ccc(NN=C2CCN(Cc3ccccc3)CC2)c([N+](=O)[O-])c1,-17.6%
6,O=C(Nc1ccc2c(c1)OCCO2)c1ccc2ccccc2n1,13.6%
7,COc1ccc(C(=O)OCC(=O)Nc2sccc2C(N)=O)cc1[N+](=O)[O-],-3.28%
8,CCOC(=O)c1nc2nc(C)c(Cl)c(=O)n2[nH]1,0.341%
9,Cc1ccc(N(CC(=O)NCC2CCCO2)C(=O)CNS(=O)(=O)c2ccc(Cl)cc2)cc1 (centres unmarked),-13.7%
10,Cc1ccc(C(=O)NCCSc2ccccc2)cc1S(=O)(=O)Nc1ccccc1,-15%
11,COc1ccccc1N1CCN(CC(=O)Nc2ccccc2C(=O)NC(C)c2ccccc2)CC1 (centres unmarked),-16.6%
12,COc1ccc(-c2cc(C(=O)N(C)CCc3ccc(OC)c(OC)c3)c3ccccc3n2)cc1,-29.4%
13,Cc1cc(S(=O)(=O)Nc2ccc3cn[nH]c3c2)c(C)cc1Cl,-0.242%
14,FC(F)(F)c1ccc2c(c1)N1CCCC1CN2 (centres unmarked),0.773%
15,O=S(=O)(NCC(c1cccnc1)N1CCN(c2ccccc2)CC1)c1cccs1 (centres unmarked),-60.4%
16,COC(=O)c1ccc(NC(=S)NC2CCCCC2)cc1,1.13%
17,CCOC(=O)C1CCN(C(=O)CCc2nnc3ccc(NCCCN4CCCC4=O)nn23)CC1,12.2%
18,COc1ccc(-c2cc(C(F)(F)F)n3nc(C(=O)N4CCCCC4)cc3n2)cc1,0.834%
19,CCNc1nc(NCC)n2c(SCC(=O)O)nnc2n1,9.66%
20,COc1ccc(Cl)cc1NC(=O)COC(=O)Cc1cccs1,-7.76%
21,O=C(CSc1ccc2ccccc2n1)N1CCC(c2noc3ccc(F)cc23)CC1,-8.94%
22,CCOC(=O)C(Cc1ccccc1)C(=O)Nc1ccccc1C (centres unmarked),9.21%
23,COc1cc(/C=N/NC(=S)NCCc2ccccc2)cc(OC)c1OC,8.26%

row,Structure (SMILES),"hERG current change (%, negative = inhibition) at 10uM"
1,O=C(CSC1=NCCS1)NC1CCCCC1,15.1%
2,Cc1ccc(-n2c(-c3ccncc3)nnc2-c2ccco2)cc1,0.0739%
3,c1ccc(C2=NNC(=NC3CC3)SC2)cc1,-1.96%
4,COc1ccc(C(C)NC(=O)c2ccccc2)cc1 (centres unmarked),-11.7%
5,CCCCN1C2CCCC1CC(NC(=O)c1cccc(OC)c1)C2 (centres unmarked),-19.3%
6,CCn1c(C)cc(/C=C2\C(=O)NC(=O)N(c3ccccc3C)C2=O)c1C,-5.18%
7,Cc1ccc(N2C(=O)c3ccccc3NC2c2ccccc2O)cc1 (centres unmarked),23.7%
8,Cc1csc(SCC(=O)Nc2ccccc2C)n1,13.2%
9,O=C(O)c1cccc(-n2cccc2/C=C2/NC(=O)N(Cc3ccccc3F)C2=O)c1,14.1%
10,COc1cc(NC(=S)NCCc2ccccc2)c(OC)cc1NC(=O)C(C)C,-11%
11,CC(C)CN(CCCNC(=O)CN1C(=O)COc2ccc(S(=O)(=O)N3CCOCC3)cc21)CC(C)C,6.18%
12,Cc1cccc(NC(=O)CSc2nnnn2-c2cccnc2)c1,-6.57%
13,COc1cccc(C2=N/C(=C\N(C)C)C(=O)O2)c1,7.67%
14,O=C(NC1CCCC1)C1CCCN(S(=O)(=O)c2ccc(-n3cnnn3)cc2)C1 (centres unmarked),-11.9%
15,Cn1c(=O)c2c(nc(N3CCN(Cc4ccccc4)CC3)n2CC(=O)c2ccccc2)n(C)c1=O,-17.8%
16,O=C(Nc1ccc(F)cc1)c1ccccc1,-7.59%
17,Cc1c(-n2c(O)c(C3=c4ccccc4=NC3=O)sc2=O)c(=O)n(-c2ccccc2)n1C,-32.7%
18,CCN1CCN(C(c2ccc(C(F)(F)F)cc2)c2ccc3cccnc3c2O)CC1 (centres unmarked),-25.3%
19,Cc1cc(C(=O)Nc2cccc3ccccc23)c(C)o1,4.69%
20,CNC(=S)N/N=C1\CC(c2ccccc2)Oc2ccccc21 (centres unmarked),7.45%

# — publication PMC4336329 (PLoS ONE, 2015)
